Data as given in publication PMC3830196, “Calmodulin-like protein AtCML3 mediates dimerization of peroxisomal processing protease AtDEG15 and contributes to normal peroxisome metabolism” (Plant Molecular Biology, 2013).
Results are given in words; binding and its absence hold for the method and conditions named. Some results given as binding are weak or reduced against the parent protein; the word gives no strength. For part of these data: Tags and fused reporters may be left off the sequences shown. Each block holds one molecule with its values, some of them ahead of it.

Assays:
[1] = target: T1, AtCML3 full length (yeast two-hybrid fusion) (Arabidopsis thaliana) (UniProt Q9SRR7); assay: two-hybrid; Matchmaker GAL4 system, fusions in pBridge (DNA-binding domain) and pGAD424 (activation domain), S. cerevisiae AH109; HIS3 reporter (growth on His-free medium) and lacZ reporter (beta-galactosidase, Miller units)
T1 sequence: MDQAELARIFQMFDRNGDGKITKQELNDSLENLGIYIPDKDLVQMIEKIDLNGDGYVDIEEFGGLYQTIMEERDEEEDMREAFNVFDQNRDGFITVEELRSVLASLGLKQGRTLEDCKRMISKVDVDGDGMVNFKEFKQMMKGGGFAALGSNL

[2] = target: AtDEG15 full length (yeast two-hybrid / three-hybrid fusion) (Arabidopsis thaliana) (UniProt Q8VZD4); assay: yeast three-hybrid; full length AtDEG15 in pBridge, AtDEG15 constructs in pGAD424, AtCML3 from the second multiple cloning site of pBridge expressed (0 mM Met); lacZ reporter, Miller units; S. cerevisiae AH109
[3] = target: AtDEG15 lacking the N-terminal 25 amino acids (yeast fusion) (Arabidopsis thaliana) (UniProt Q8VZD4); assay: as above
[4] = target: AtDEG15 full length (yeast two-hybrid / three-hybrid fusion) (Arabidopsis thaliana) (UniProt Q8VZD4); assay: two-hybrid; Matchmaker GAL4 system, fusions in pBridge (DNA-binding domain) and pGAD424 (activation domain), S. cerevisiae AH109; HIS3 reporter (growth on His-free medium) and lacZ reporter (beta-galactosidase, Miller units)
[5] = target: AtDEG15 lacking the N-terminal 25 amino acids (yeast fusion) (Arabidopsis thaliana) (UniProt Q8VZD4); assay: as above
[6] = target: AtDEG15 lacking the first 100 amino acids (yeast fusion) (Arabidopsis thaliana) (UniProt Q8VZD4); assay: as above
[7] = target: AtDEG15 lacking the first 50 amino acids (yeast fusion) (Arabidopsis thaliana) (UniProt Q8VZD4); assay: as above
[8] = target: AtDEG15 lacking the first 75 amino acids (yeast fusion) (Arabidopsis thaliana) (UniProt Q8VZD4); assay: as above
[9] = target: AtDEG15N, the 373 amino acids long N-terminal domain of AtDEG15 (yeast fusion) (Arabidopsis thaliana) (UniProt Q8VZD4); assay: as above

binding [1]: binds
Molecule: AtDEG15 full length (yeast two-hybrid / three-hybrid fusion) (from UniProt Q8VZD4 1-709) (enzyme)

binding [2]: no binding
binding [3]: no binding
Molecule: AtDEG15 lacking the N-terminal 25 amino acids (yeast fusion) (from UniProt Q8VZD4 26-709) (domain or fragment)

binding [4]: binds
binding [5]: no binding
binding [6]: no binding
binding [7]: no binding
binding [8]: no binding
binding [9]: binds
B1: AtCML3 full length (yeast two-hybrid fusion) (natural protein, Arabidopsis thaliana, UniProt Q9SRR7 1-153, looked up)
chain: MDQAELARIFQMFDRNGDGKITKQELNDSLENLGIYIPDKDLVQMIEKIDLNGDGYVDIEEFGGLYQTIMEERDEEEDMREAFNVFDQNRDGFITVEELRSVLASLGLKQGRTLEDCKRMISKVDVDGDGMVNFKEFKQMMKGGGFAALGSNL
notes: AtCML3, calmodulin-like protein of Arabidopsis thaliana (At3g07490); full-length coding region; Cloned both into pBridge and pGAD424; also called AtCML3_pGAD424; AtCML3_pBridge; source: yeast two-hybrid fusion (S. cerevisiae AH109)
